According to the supplement of paper PMC3724861:
The list shows a part of the results.

Tested on: T1, Caupolican (Caup) homeodomain DNA-binding domain
T1 sequence: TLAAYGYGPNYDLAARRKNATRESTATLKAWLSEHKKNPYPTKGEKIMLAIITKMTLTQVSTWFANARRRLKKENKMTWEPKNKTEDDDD
Assay: PBM E-score (8-mer, recovered from the published 9-mer minima) (E-score (dimensionless, -0.5 to 0.5)); Drosophila protein; higher = stronger relative binding preference, active = 0.31 or more
How it was run: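 An enrichment score, with higher meaning stronger, expresses relative binding preference for each short DNA word. The protein used was Caup's homeodomain DNA-binding domain (residues 214-303), produced by in vitro transcription and translation and tested at 100 nM on custom-designed protein binding microarrays. The 8-mer values were recovered from published 9-mer scores, each equal to the lower of its two constituent 8-mer scores.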

PBM E-score, ≥ 0.0429:
AGCAACCA

PBM E-score, ≥ 0.241:
TCAAATCA

PBM E-score, ≥ 0.103:
CCTGACTA

PBM E-score, inactive:
AGAACTGC -0.0543
ACCTAGAC 0.0342
CAGGTCCG -0.117
AGCTTAGG -0.036
CCGGTCCA -0.155
CGGGGGAA -0.26
AGTAGGAA -0.0405
AGGTCCCA -0.0895
CCAGGTGC -0.123
AGTAGGTC -0.0514
TACTCCTA 0.0404
GGTGTGCA -0.0729
CACGTTTA 0.136
CTCACCTA 0.0316
CTCCAAAC 0.0426
CTAGTTCC 0.0302
CCGTGAAG -0.101
GTCATAGA 0.089
ATTGGTGG -0.0526
GGGGTGAA -0.164
GCAGTCCC -0.194
CTTAATCC -0.0587
CATCGGTA 0.0702
GTTCTTAA 0.0719
CTTTCTGC -0.137
CTCGACCA -0.116
CAGAATCA 0.0559
GGTGCACC -0.103
AACTATAG 0.066
CCTAGTAA 0.088
CATCATCC 0.0524
GGCTACGA -0.0105
ACGCAGTC -0.108
AGGACCCA -0.214
AATTGGAC 0.0915
CCATGCGC -0.129
CCGAGGCA -0.104
CACGCCTC -0.134
CCGTCTAC -0.0405
CTTTCAAA 0.0275
ATTGCTCG -0.00915
ACCTGACT 0.0678
AAACGGAT 0.115
GCCGAATA -0.00585
GCACTTAA 0.107
TCTACGCA 0.0509
AGAGTCGG -0.0944
AGAAAAGA 0.0025
CACCAATG 0.0193
GAACTCGA 0.00047
AACTTGCC 0.0621
AACCCGTG -0.08
CGAAGTTC -0.0365
GGAATTCC -0.046
GAACCCGC -0.227
AACGAGGA 0.0777
AGAGTTAA 0.028
CGGTCGGC -0.282
GCAACCGA -0.072
GGATGTGA 0.081
AATAGTGG 0.149
TCTAAGCA 0.0357
AAAAATCT 0.0529
AGCCACAA -0.0654
CAAAATCC 0.0624
ATAACCAA 0.143
ATAATCCC -0.0206
AAGTCACG 0.0154
GACCTCGC -0.0912
AATGCACG 0.0389
AGTTTAGC -0.00647
CAGTTTAC 0.105
CGTTTAAA 0.0872
CCGATGGA -0.103
GAAGACAC 0.145
ATGCGTTA 0.051
GCTTCTTA -0.0551
GAATCGCA 0.00506
CGTAGCGC -0.13
CGTAGTAG 0.0178
ATTTCGAG -0.00649
ATACGGAG -0.0658
AGGGGCAG -0.113
ACCGATAC 0.0733
GGTAAGTA 0.0705
GCCGTAGA -0.039
ATTGGTAG 0.0945
ATCCCGAC -0.0204
AAAAGCAA 0.0603
ATAATCTC 0.0581
TGAAGCAA 0.0246
AGAATTAG 0.0574
ATGCCTAC -0.0611
GTTTGTCA 0.187
CATTTACG 0.0663
CCGCGCTC -0.23
AACCTGCT -0.00443
AATCGAGA -0.00416
ATCGTTAG -0.0181
ATGCGAAC 0.0459
GGTCTTTA 0.0116
ATGGTCCC -0.0982
CGGTACTC -0.0267
ATATTTAA 0.199
GACATTGC 0.149
CACCTTTC -0.108
AAGAGCGG -0.141
AGAGCAAT -0.00702
TCACCCGA -0.075
CACATCAC 0.0974
AAGAGGAC -0.0369
CTAAGTAC 0.0839
AAAAAGAC -0.00775
AGCTGATA 0.0965
TCAGACGA 0.0794
ATCCTGTC 0.137
AACATAGT 0.287
ATAGCTCA -0.0365
CACTAAGA 0.0597
CGGGCCAA -0.248
GCATAAAC 0.0658
GCAGCGCC -0.261
ACGTAGCT 0.0358
TGCCCTAA -0.103
AAGATAAC 0.144
ACTTTTTA 0.0843
CGGTGTCC -0.0474
GCAACGCA -0.109
CTGGGTGA -0.112
GGCGTGTA 0.281
ATCGTAAA 0.0906
AGACATCG 0.0873
ATGCCAAA 0.0619
CGATTACA 0.307
CGGTAAAC -0.00339
AATGGCGC -0.159
AAGGTGGA -0.0864
ACCGGTAT -0.0718
CGACTCAA 0.0205
GTCCCCGA -0.0571
CGACGTAA 0.04
ACTGCTAT 0.00752
CACAGCAA 0.108
ACTCGGTC -0.0373
TAGACTCA -0.0429
ACACCAGC 0.0328
ACGCTTAA 0.0309
GCGCAAGC -0.2
GGGTAAGA -0.102
ATTAGTTG 0.186
GCCTACTA 0.0515
CTAATACC 0.0259
ACTAGTCC 0.124
AACTCGCG -0.00136
ATAATAAA 0.124
AGGGGACC -0.259
CGCTTTGA -0.166
TACCATCA 0.0931
AGTATTAG 0.14
AAATCGGC -0.148
CGGTGACC -0.204
CTGCCCGA -0.114
AAAAACCT 0.104
CGAGTCTA -0.109
CAAGGGGA -0.0103
AAGCGCCC -0.264
CACGGATG 0.00606
AACTGATG 0.0731
CCATCACA -0.0311
AGGGCCTG -0.122
GAACATTA 0.219
ATTGCCTG 0.0173
GAACTATA 0.0858
ACTCTAGG -0.0354
GTACGAAA 0.128
AGTTATAT 0.181
ACGCGCGA -0.0622
CGGACAGC -0.0438
CCGAGAGA -0.166
GTTACCAA 0.0951
ACAGAGTC -0.00596
GAGTTTCC -0.0594
GTTGCTCA 0.105
AGCGCCAA -0.205
CGGGACAG -0.0457
AAAGAGCA 0.0575
ACTCACCT -0.0905
AAGGTTGC -0.0566
ATCGATGG 0.0724
AGAGGCCT -0.198
GCCTCACC -0.232
GGCTCGAC -0.122
CGCTTGGA -0.0438
AGTGTAAA 0.13
TATCTCGA 0.00943
CAGTATGC -0.0186
GGTATGCA 0.0241
CGGTATAC 0.00102
GTGCCAGA -0.0996
GGGATTGA -0.0471
CGGGGGGC -0.409
CACGTGTC 0.266
GGGCCCAA -0.203
ACTCCAAC -0.0333
ACTCTAAT 0.0481
GATCCTCC -0.123
GCAGCAAA -0.0553
AGTTTTGA 0.0657
AAATCTAA 0.0434
GGGCCACC -0.313
GCCTGAAC -0.161
CCCTACGC -0.145
CCCCACCC -0.196

PBM E-score, ≥ 0.109:
AAAGGGTA

PBM E-score, ≥ 0.0685:
ATCCTGAA

PBM E-score, active:
ACGTACAT 0.337
AATGTACA 0.407
ACAAGACA ≥ 0.352

PBM E-score, ≥ 0.161:
AATAGCAA
